# The whole screen tested about 150,000 compounds, of which about 540 (0.36%) showed an effect of 50% or more. The list shows a part of the results.
# Tested on: Plasmodium falciparum
# Assay: Primary screen in NF54 nanoGlo assay, in single point, at 2uM, 72h; a lower Z score goes with more inhibition
# Format: functional, Erythrocyte
# Conditions: timepoint 72 hour
SMILES,% Inhibition [%],Z score
CC[C@H]1CCCCN1C(=O)c1cn(Cc2cccc(OC)c2)cc(C(=O)NCc2nccs2)c1=O,-5,0.64
O=C(c1cccc(Cl)c1)[C@H]1CCCN(C2CCC2)C1,-14,1.5
O=C(c1cn2cccnc2n1)N1C[C@@H](c2ccccc2)[C@@H]2[C@H]1C1CCN2CC1,-5,1.02
CCCN(CCN1CC2CCC(C1)O2)CC1CC1,1,-0.11
C#CCNC(C(C)C)C(O)c1ccccc1 (stereo not given),-12,1.47
CN(C)c1cc(NC(=O)N2C3CCNCC2CC3)ncc1Br (stereo not given),-3,0.41
CO[C@H]1CN(C(C)C)C[C@@H]1NC1CCCCC1,-7,0.73
COc1ccccc1[C@@H]1CN(c2nc(CO)cs2)[C@@H]2C3CCN(CC3)[C@@H]21,-1,0.13
CN1CCO[C@@H]2CN(C(=O)Cc3cnn(C)c3)C[C@@H]21,21,-2.62
O=C1NC(=O)C2(Cc3ccccc3N3CCC(c4ccccc4)CC32)C(=O)N1c1cc(Cl)ccc1Cl (stereo not given),32,-3.65
c1ccc2c(C3CCNCC3)ccnc2c1,14,-1.84
Cc1ccc(-c2cn(CC(=O)Nc3ccccc3C)c(=O)o2)cc1,-11,1.84
O=C(c1onc2c1CCCC2)N1C[C@H]2CC[C@@H](C1)N(CC1CC1)C2,4,-0.56
COC1CCN(C[C@H]2CCCCCN2C(=O)COc2ccc(F)cc2)CC1,1,-0.1
CN(Cc1ccccc1)C(=O)c1nn(Cc2ccccc2)c2nccc(-c3cccs3)c12,-1,0.14
CN(CC1=CCCCC1)Cc1n[nH]c(=O)o1,5,-0.5
Cc1cc2c(cc1-c1c(C#N)c(N)nc3c1N1CCC3CC1)OCCO2,-6,0.95
O=S1(=O)C[C@@H]2[C@H](C1)N(c1ncccn1)CCN2Cc1ccccn1,0,0.03
O=C1[C@@H]2CCCN2[C@@H](c2ccccc2Cl)N1c1ccccn1,-11,1.39
O=C(NC1CCCCC1)Oc1cc2sc(=O)oc2cc1Br,-5,0.79
C[C@@H](Cc1ccco1)NC(=O)Oc1ccccc1,-10,1.45
Cc1ccc2c(c1)[C@@H]1CN(C)CC[C@H]1N2,5,-0.6
c1cc(CN2CC[C@]3(CCOC3)C2)ccn1,-17,1.82
O=C(CCc1nc(C2=CCN(Cc3ccc(Cl)cc3)CC2)no1)NCc1cccnc1,-12,1.41
O=C(Cc1ccccc1)N1CCC2(CC1)OCCO2,-13,1.24
O=C(NCC(=O)N1CCC2(CC1)OCCO2)c1ccco1,6,-1.17
O=C1NC(=O)C2(Cc3ccccc3N3CCCCC32)C(=O)N1c1ccccc1 (stereo not given),6,-0.73
O=C(NCC#CCN1CCOCC1)c1ccc[nH]c1=O,4,-0.56

SMILES,% Inhibition [%],Z score
O=C(c1cnc[nH]c1=O)N1C[C@@H](c2cc(F)cc(F)c2)[C@@H]2[C@H]1C1CCN2CC1,-12,1.78
FC(F)(F)c1cccnc1CN1CCCC2(C1)OCCO2,-8,1.45
CNc1ncc(CN(C)C(=O)Nc2cnns2)cn1,-9,1.1
CCc1nc(CN2C[C@@H]3CC[C@H]2CN(Cc2ccccn2)C3)cs1,-7,1.03
Cc1nn(C(C)(C)C)cc1C(=O)Nc1n[nH]c2c(Cl)cccc12,12,-1.52
CCOC(=O)C(C)N1CCN2C(=O)NC(=O)C2C1 (stereo not given),-14,1.79
Cc1nc(CC(=O)N(C)[C@H]2CCCN(CCCc3ccccc3)C2)cs1,-4,0.51
Cc1cc(NC(=O)c2ccc(F)cc2Cl)sc1C(=O)N1CCC2(CC1)OCCO2,-13,1.32
CCC(=O)N1CCC2(CC1)N(c1ccccc1)C(=O)C[S@+]2[O-],-5,0.9
Cc1cc(CN2CCN(C(=O)Cc3c(C)nn(C)c3C)CC2)on1,-7,1.48
COc1ncccc1CN1CC2(CCC2)[C@@H]1C1CCOCC1,-9,1.37
CN(C)S(=O)(=O)N1[C@@H]2CC[C@H]1Cc1nc(-c3ccccc3)[nH]c(=O)c1C2,3,-0.59
Cc1csc(NC(=O)c2ccc3c(c2)CCNCC3)n1,-11,1.7
CC1(C)C(C(=O)N[C@H]2CCC(=O)N[C@@H]2c2ccccc2)C1(C)C,-4,0.47
CCc1nsc(N2CCC3CCC(C2)N3C)n1 (stereo not given),38,-5.92
c1ccc2c(CN3CCCCCC3)c[nH]c2c1,5,-0.53
O=C(Cn1c(-c2ccccc2)noc1=O)Nc1ccccc1Cc1ccccc1,5,-0.91
CC1CCC(NC2CCC(O)CC2)CC1 (stereo not given),-6,0.9
COc1c(C)cc(C(=O)[C@H]2CCCN(Cc3ncc[nH]3)C2)cc1C,-14,1.97
Cc1ccc(Cn2cnc([C@@H]3COCCN3)n2)c(C)n1,0,0.02
CCN(CC)C(=O)Oc1ccc2c(ccn2Cc2ccc(F)c(F)c2)c1-c1ccc(OC)cc1,2,-0.43
O=C(NCC1CCc2ccccc2CC1)c1ccc(-c2noc(=O)[nH]2)cc1,-13,2.29
C[C@H](O)CN1CC=C(c2noc(CN(C)C(=O)N3CCCC3)n2)CC1,-16,2.13
COc1cccc(C(=O)[C@H]2CCCN(Cc3c[nH]c(C)n3)C2)c1,-14,2.08
O=C(O)c1cccnc1N1CCC[C@H]1c1cccnc1,4,-0.55
C/C=C(\C)CN(C)CCc1ccccn1,6,-0.85
Cc1ncccc1OC[C@H]1CCCN1Cc1cnn(C(C)(C)C)c1,8,-0.98

# Source: ChEMBL document CHEMBL4888484, “Replenishing the malaria drug discovery pipeline: Screening and hit evaluation of the MMV Hit Generation Library 1 (HGL1) against asexual blood stage Plasmodium falciparum ,using a nano luciferase reporter read-out” (2022)
